Hit rate of the full screen: of about 46,000 compounds, about 60 (0.1%) were called active. Roughly 3% stayed inconclusive and do not appear here. The call rests on the fitted dose curve; in most records, active means well fitted inhibition curve with a large enough effect; inconclusive means small, poorly fitted or top-dose-only effect; inactive means no such curve, though single readings can be large or run the other way. The list shows a part of the results.
Experiment: Primary qHTS assay for Inhibitors of ovarian cancer metastasis using an organotypic tumor microenvironment (TME) model. Further: nearly all actives have a fitted effect of over 65% in size.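 On activity change, negative = inhibition: plate controls were DMSO wells for no effect and tomatine positive control wells for full effect.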
Details: SKOV3ip1-GFP adhesion/invasion on 3D omental model, fluorescence; series mostly up to 45.8 µM; activity change, negative = inhibition: at the top concentration
Method in brief: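 qHTS, 4-pt dose (0.36-46 umol/L); SKOV3ip1-GFP, 1,200 cells/well, no FBS; primary omental fibroblast/mesothelial co-culture 48 h pre-grown; 2 h RT + 16 h 37 C; PBS wash, 4% PFA; GFP count 488/509 nm.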

outcome, inactive:
CCOc1ccccc1CNC(=O)C1CCN(C(=O)N2CCOc3ccc(Cl)cc32)CC1
CCN(CC)C(=O)Cn1ncc2c([nH]c3ccc(C)cc32)c1=O
COc1ccc(-n2nc(-c3ccc(C)cc3)c3cnc4cc(F)c(F)cc4c32)cc1
COc1cccc(CNC(=O)c2ccc3c(c2)nc2n3CCC(C)C2)c1 (stereo unspecified)
COc1cccc(NC(=O)Cn2c(=O)n(CCc3cccc(C)c3)c(=O)c3ccccc32)c1
CCOCCCn1c(=N)c(C(=O)NCc2ccccc2)cc2c(=O)n3ccccc3nc21
Cc1cccc(Cn2c(=O)n(Cc3ccccc3)c(=O)c3sc4ccccc4c32)c1
CCCCn1c(CNC(=O)C23CC4CC(CC(C4)C2)C3)nnc1SCC(=O)Nc1ccc(F)cc1
COc1ccc(CNC(=O)C(=O)NCC(c2cccs2)S(=O)(=O)c2cccs2)cc1 (stereo unspecified)
Cc1cn2c(=O)c(S(=O)(=O)NCc3ccc(F)cc3)c(C)nc2s1
O=C(NCc1ccccc1Cl)c1ccc(-n2cnc3cccnc32)cc1
COc1ccc(-c2c(C)nn3c(N4CCN(c5cc(Cl)ccc5C)CC4)cc(C)nc23)cc1OC
COc1ccccc1CNC(=O)CSc1cc(C)[nH]c(=O)n1
O=C(Cn1c(=O)n(-c2ccccc2Cl)c(=O)c2sc3ccccc3c21)NC1CCCC1
CCCN(CCC)C(=O)Cn1c(=O)n(-c2ccc(Cl)c(Cl)c2)c(=O)c2c(C)c(C(=O)N(C)C)sc21
Cc1ccc(CNC(=O)CCCc2nnc3n(CC(C)C)c(=O)c4sccc4n23)cc1
CC1=C(c2ccc(C(C)C)cc2)S(=O)(=O)NC1=NCc1ccc(Cl)cc1

Activity change, negative = inhibition, inactive:
COc1ccc(NC(=O)c2ccc3c(c2)N(Cc2cccc(Cl)c2)C(=O)c2ccccc2S3(=O)=O)cc1Cl 7.86%
CC(C)Oc1ccc(CNC(=O)c2ccc(CS(=O)Cc3ccccc3Cl)o2)cc1 (stereo unspecified) -7.05%
COc1ccc(OC)c(NC(=O)c2oc3c(c2C)-c2nn(Cc4ccc(Cl)cc4)cc2CC3)c1 13.7%
Cc1cc(C)n2nc(-c3ccc(Cl)cc3)nc2n1 -0.159%
Cc1cccc(N2CCN(c3nc4ccc(C(=O)c5ccccc5)cc4n4cnnc34)CC2C)c1 (stereo unspecified) 3.17%
CCOC(=O)c1c(NC(=O)CSc2cn(CCNC(=O)c3ccc(OC)c(OC)c3)c3ccccc23)sc2c1CCC2 13.5%
Cc1cn2c(=O)cc(COC(=O)c3cccc(NC(=O)COc4ccccc4)c3)nc2s1 -1.79%
Cc1cccc(OCCSc2nc3ccc(NC(=O)COc4ccccc4C)cc3s2)c1 -5.04%
COC(=O)CN1C(=O)CSc2ccc(S(=O)(=O)Nc3ccccc3)cc21 -5.62%
Cc1ccc2c(CC(=O)N3CCN(c4cccc(Cl)c4)CC3)coc2c1C -16.7%
CC(=O)Nc1ccc(NC(=O)Cn2cc3c(n2)CCCCC3)cc1 -25.3%
CCOc1ccccc1NC(=O)CCc1c(C)nc2cc(-c3ccccc3)nn2c1C 25.2%
CC(C)C(=O)Nc1cccc(C(=O)Nc2nnc(C(F)(F)F)s2)c1 1.73%
CCCN(CCC)C(=O)c1nn(C)c2c1CSc1ccccc1-2 6.16%
Cc1ccc(NC(=O)Cn2nc(-c3ccccc3)nc(Cc3ccccc3)c2=O)cc1 -7.11%
Cc1cccc(NC(=O)c2c(NC(=O)c3ccco3)sc3c2CCC(C)C3)c1 (stereo unspecified) 8.44%
Cc1c2cnn(-c3ccccc3)c(=O)c2c(C)n1C(C)C(=O)NCc1cccc(Br)c1 (stereo unspecified) -8.76%
CC(C(=O)Nc1ccccc1)n1nnc2sc3c(c2c1=O)CCCC3 (stereo unspecified) -28.4%
Cc1ccc(NC(=O)CSc2nc3ccccc3n2CC(=O)N(C)C2CCCCC2)cc1C -1.53%
CCOc1ccc2nc(N3CCCC(C(=O)NCCc4ccc(C)cc4)C3)sc2c1 (stereo unspecified) -9.14%
CCc1nc2nc(C)c(NS(=O)(=O)c3ccc(F)c(C)c3)c(=O)n2[nH]1 -11.6%
Cc1nc(-c2cccc(F)c2)sc1CCNC(=O)C(=O)Nc1ccc2c(c1)OCCO2 -4.92%
Cc1ccccc1C(=O)Nc1ccccc1-c1nc(-c2ccccc2)no1 -2.55%
Cc1ccc(NC(=O)C2CCCN2S(=O)(=O)c2ccc3nc(-c4ccccc4)[nH]c3c2)cc1C (stereo unspecified) -0.941%
Cc1cc(C(=O)NCc2ccccc2)c2c(C)nn(-c3cccc(Cl)c3C)c2n1 -15.5%
Cc1cccc(NC(=O)Nc2nnc(N3CCCC3)s2)c1 -6.34%
Cc1ccc(-n2cnc3cc(C(=O)NCCC4=CCCCC4)ccc32)cc1Cl -7.31%
CCc1ccccc1N(CC)C(=O)Cn1nc(Cc2ccncc2)c2ccccc2c1=O -10%
O=C(NCCS(=O)(=O)N1CCN(c2ccccc2F)CC1)C1CC(=O)N(c2ccc(F)cc2)C1 (stereo unspecified) 6.5%
Cc1ccc(S(=O)(=O)C(CNS(=O)(=O)c2ccc(F)c(C)c2)c2cccs2)cc1 (stereo unspecified) 14.5%
O=C(CCc1nc(-c2cccs2)no1)Nc1ccc([N+](=O)[O-])cc1 0.367%
Cc1cccc(NC(=O)COc2ccc3oc4c(c3c2)CCCC4)c1 -4.06%
Cc1ccc(OCC(=O)Nc2cccc3ccc(C)nc23)c(C)c1 11%
O=C(CCC1N=C2c3ccccc3N=C(SCC(=O)NCCc3ccccc3)N2C1=O)NCc1ccc(F)cc1 (stereo unspecified) 14.7%
CCC(NC(=O)Nc1cccc(C)c1)c1c(-n2cccc2)sc2c1CCN(C)C2 (stereo unspecified) -21.7%
Cc1ccc(CNC(=O)CSCc2nc(-c3cccc(C)c3)oc2C)cc1 4.75%
Cn1c(/C(C#N)=C/c2ccc(C(F)(F)F)cc2)nc2ccccc21 -2.88%
CCOc1ccccc1NC(=O)Cn1nc(N2CCN(c3ccccc3)CC2)ccc1=O -5.32%
Cc1ccn2c(Nc3ccc4c(c3)OCCO4)c(-c3ccc(N(C)C)cc3)nc2c1 -9.06%
CCOc1ccc(-c2nnc(SCC(=O)N(CC)c3cccc(C)c3)o2)cc1 2.87%
CCOc1ccc(OCC)c(NC(=O)C2CCCN(S(=O)(=O)c3ccc(C)cc3)C2)c1 (stereo unspecified) -16.3%
Cc1sc2ncn(CC(=O)N3CCN(c4ccccc4)CC3)c(=O)c2c1S(=O)(=O)N1CCC(C)CC1 -0.751%
CCOC(=O)c1ccccc1NC(=O)c1nn(-c2ccc(OC)c(Cl)c2)c(=O)c2c1c1ccccc1n2C -1.01%
CCc1ccc2occ(CC(=O)Nc3ccc(C)c(C)c3)c2c1 -5.59%
